# Measurements reported in the supplement of paper PMC6135742.
# Structures can show the parent of a compound that is named as a salt. ± gives the standard deviation of the averaged measurements. In all, about 2,600 compounds were measured (“total cell number (DAPI+ nuclei) relative to DMSO vehicle control”: median about -1.4, lowest 2% from about -23 on). This is one part of the list.
# Test system: jimpy (Plp1 jimpy) mouse iPSC-derived oligodendrocyte progenitor cells
# Assay: total cell number (DAPI+ nuclei) relative to DMSO vehicle control (SDs above negative control mean); higher = more surviving cells
# Conditions: 10 µM; 3 days
row,SMILES,total cell number
1,Nc1cccc2c1C(=O)N(C1CCC(=O)NC1=O)C2=O (configuration not stated) [Pomalidomide],-0.938
2,C=C1C[C@@]23CC[C@H]4[C@@](C)(CCC[C@@]4(C)C(=O)O)[C@@H]2CC[C@]1(O)C3 [Steviol],-0.619
3,Oc1ccc(OC2CCCCO2)cc1 (configuration not stated) [Deoxyarbutin],-3.34
4,O=C(O)C(O)Cc1ccc(O)c(O)c1 (configuration not stated) [Sodium Danshensu],-1.54
5,O=C(O)C(O)Cc1ccc(O)c(O)c1 (configuration not stated) [Danshensu sodium salt],-1.47
6,CC1(C)CCC(C)(C)c2cc(NC(=O)c3ccc(C(=O)O)cc3)ccc21 [Tamibarotene],-9.8
7,N[C@@H](Cc1cc(I)c(Oc2cc(I)c(O)c(I)c2)c(I)c1)C(=O)O [L-Thyroxine],-0.837
8,CN1C[C@H](O)[C@@H](O)[C@H](O)[C@H]1CO [N-Methyl-1-deoxynojirimycin],-0.745
9,O=C1Nc2ccccc2/C1=C1/Nc2ccccc2C1=O [Indirubin],-1.42
10,CCCCc1nc2cc(/C=C/C(=O)NO)ccc2n1CCN(CC)CC [Pracinostat (SB939)],-12.2
11,O=C(O)/C=C/c1ccc(O)c(O)c1 [Caffeic Acid],-0.651 ± 0.44
12,CC1(C)CC(=O)c2c(C(F)(F)F)nn(-c3ccc(C(N)=O)c(N[C@H]4CC[C@H](O)CC4)c3)c2C1,-12.1
13,COc1cc2nc(N(C)CCCNC(=O)C3CCCO3)nc(N)c2cc1OC (configuration not stated) [Alfuzosin HCl],4.62
14,COc1cc2nc(N(C)CCCNC(=O)C3CCCO3)nc(N)c2cc1OC (configuration not stated) [Alfuzosin hydrochloride],-2.22
15,Clc1ccc(Cn2c(CN3CCCC3)nc3ccccc32)cc1 [Clemizole hydrochloride],-0.144
16,N#CSc1cc(SC#N)c(N)nc1N,-14.3
17,CC(C)n1nc(-c2ccc3oc(N)nc3c2)c2c(N)ncnc21,-6.55
18,N[C@@H](Cc1c[nH]c2ccc(O)cc12)C(=O)O [5-Hydroxy-L-tryptophan],-2.54
19,N[C@@H](Cc1c[nH]c2ccc(O)cc12)C(=O)O [5-hydroxytryptophan (5-HTP)],-0.837
20,OCC1OC(n2cnc3c(NC4CCCCC4)ncnc32)C(O)C1O (configuration not stated) [N6-Cyclohexyladenosine],-1.69
21,CC(=O)Nc1nc2c(Oc3cc(-c4ccc(C(F)(F)F)cc4)ncn3)cccc2s1,0.904
22,N=C(N)Nc1ccc(C(=O)Oc2ccc3cc(C(=N)N)ccc3c2)cc1 [Nafamostat Mesylate],-6.65
23,C=CC(=O)Nc1cccc(Nc2nc(Nc3ccc(Oc4ccnc(C(=O)NC)c4)cc3)ncc2F)c1,-15
24,CCCSc1nc(N[C@@H]2C[C@H]2c2ccc(F)c(F)c2)c2nnn([C@@H]3C[C@H](OCCO)[C@@H](O)[C@H]3O)c2n1 [Ticagrelor],-6.46
25,N[C@@H]1CONC1=O [D-Cycloserine],-0.337
26,Cn1cc(-c2cnn3c(N)c(Br)c([C@@H]4CCCNC4)nc23)cn1,-8.88

row,SMILES,total cell number
1,O=C(O)COCCN1CCN(C(c2ccccc2)c2ccc(Cl)cc2)CC1 (configuration not stated) [Cetirizine dihydrochloride],-0.906
2,O=C(O)COCCN1CCN(C(c2ccccc2)c2ccc(Cl)cc2)CC1 (configuration not stated) [Cetirizine DiHCl],-4.38
3,C=C1C[C@@]2(O)O[C@@]3(C[C@H]2C(C)C)[C@@H](C)CC[C@@H]13 [Curcumol],-0.28
4,CCCc1c2oc(C(=O)O)cc(=O)c2cc2c(=O)cc(C(=O)O)n(CC)c12 [Nedocromil],-1.4
5,N[C@H]1C[C@@H]1c1ccc(-c2cccc(O)c2)cc1,-3.31
6,COc1ccc(-c2ccc3ncc4c(c3c2)n(-c2ccc(N3CCNCC3)c(C(F)(F)F)c2)c(=O)n4C)cn1,-12.5
7,CC(=O)O[C@]1(C(C)=O)CC[C@H]2[C@@H]3C=C(Cl)C4=CC(=O)[C@@H]5C[C@@H]5[C@]4(C)[C@H]3CC[C@@]21C [Cyproterone acetate],-0.554
8,CC(=O)O[C@]1(C(C)=O)CC[C@H]2[C@@H]3C=C(Cl)C4=CC(=O)[C@@H]5C[C@@H]5[C@]4(C)[C@H]3CC[C@@]21C [Cyproterone Acetate],6.81
9,CC(C)c1cc(-c2n[nH]c(=O)n2-c2ccc3c(ccn3C)c2)c(O)cc1O [Ganetespib (STA-9090)],-25.4
10,CC1(C)[C@H](C(=O)O)N2C(=O)C[C@H]2S1(=O)=O [Sulbactam],-0.259
11,CC1(C)[C@H](C(=O)O)N2C(=O)C[C@H]2S1(=O)=O [Sulbactam sodium],1.1
12,Nc1ccc(N2C(=O)c3ccccc3C2=O)c(Cl)c1 [N-(4-Amino-2-chlorophenyl)phthalimide],0.385
13,CN1CCc2cc(Cl)c(O)cc2[C@@H](c2ccccc2)C1,-0.705
14,Cc1ncc(CO)c(CO)c1O [Pyridoxine HCl],0.837
15,C#Cc1cccc(Nc2ncnc3cc4c(cc23)OCCOCCOCCO4)c1 [Icotinib],-6.11
16,Cc1ccc(NCCCc2ccccc2)c(N)c1,-11.8
17,CCc1c(C)[nH]c2c1C(=O)C(CN1CCOCC1)CC2 (configuration not stated) [Molindone hydrochloride],-1.59
18,c1ccc(-c2[nH]ncc2-c2ccnc3ccccc23)nc1,-2.66
19,CC1=C(C(=O)O)N2C(=O)[C@@H](NC(=O)[C@H](N)C3=CCC=CC3)[C@H]2SC1 [Cephradine],-1.61
20,CC1=C(/C=C/C(C)=C/C=C/C(C)=C/C(=O)O)C(C)(C)CCC1 [Tretinoin],-1.01
21,CC1=C(/C=C/C(C)=C/C=C/C(C)=C/C(=O)O)C(C)(C)CCC1 [Retinoic acid],-0.79
22,C[C@]12CC[C@H](O)CC1=CC[C@@H]1[C@@H]2CC[C@]2(C)C(n3cnc4ccccc43)=CC[C@@H]12 [Galeterone],1.94
23,NC(=O)C1=CN(C2OC(COP(=O)(O)OP(=O)(O)OC[C@H]3O[C@@H](n4cnc5c(N)ncnc54)C(OP(=O)(O)O)[C@H]3O)C(O)C2O)C=CC1 (some centres not stated) [NADPH tetrasodium],-1.06
24,"CC(O)C(O)[C@H]1CNc2nc(N)[nH]c(=O)c2N1 (stereo partly drawn) [(6R)-5,6,7,8-Tetrahydro-L-biopterin hydrochloride]",-1.76
25,CNS(=O)(=O)CCc1ccc2[nH]cc(C3CCN(C)CC3)c2c1 [Naratriptan hydrochloride],-1.55
26,CNS(=O)(=O)CCc1ccc2[nH]cc(C3CCN(C)CC3)c2c1 [Naratriptan],0.491

row,SMILES,total cell number
1,"O=C(O)[C@H]1NCCC[C@H]1C(=O)O (racemic) [(±)-cis-Piperidine-2,3-dicarboxylic acid]",1.76
2,CC(=O)Oc1ccccc1C(=O)O [Aspirin],-0.191
3,CC(=O)Oc1ccccc1C(=O)O [Acetylsalicylic acid],-1.06
4,N=C(N)NS(=O)(=O)c1ccc(N)cc1 [Sulfaguanidine],1.55
5,COc1ccc2ccc(=O)oc2c1CC=C(C)C [Osthole],-1.22
6,Cc1ccc(NC(=O)c2ccc(CN3CCN(C)CC3)cc2)cc1Nc1nccc(-c2cccnc2)n1 [Imatinib Mesylate (STI571)],-14
7,Cc1ccc(NC(=O)c2ccc(CN3CCN(C)CC3)cc2)cc1Nc1nccc(-c2cccnc2)n1 [Imatinib (STI571)],-7.2
8,Cc1nn(-c2ccccc2)c(C)c1C=NN1CCN(Cc2ccccc2)CC1,3.84 ± 1.1
9,Oc1cc2c(c(Cl)c1O)CCNCC2c1ccccc1 (racemic) [(±)-6-Chloro-PB hydrobromide],-2.06
10,CC(C)C(=O)Oc1ccc(CO)cc1[C@H](CCN(C(C)C)C(C)C)c1ccccc1 [Fesoterodine Fumarate],-3.56
11,O=C(O)C(=O)O.[NH-][C@@H]1CCCC[C@H]1[NH-].[Pt+2] [Oxaliplatin],-23.4
12,CCc1cc2c(cc1N1CCC(N3CCOCC3)CC1)C(C)(C)c1[nH]c3cc(C#N)ccc3c1C2=O,-4.28
13,CCc1c2c(nc3ccc(O)cc13)-c1cc3c(c(=O)n1C2)COC(=O)[C@]3(O)CC,-3.4
14,Fc1ccc(CN(C2=NCCN2)c2c(Cl)cccc2Cl)cc1 [IMID-4F hydrochloride],-6.12
15,CCOC(=O)O[C@]1(C(=O)OCCl)CC[C@H]2[C@@H]3CCC4=CC(=O)C=C[C@]4(C)[C@H]3[C@@H](O)C[C@@]21C [Loteprednol etabonate],-1.9
16,O=C(O)CNC(=O)C(CS)Cc1ccccc1 (racemic) [DL-Thiorphan],-1.82
17,Clc1ccc(C(Cn2ccnc2)OCc2ccsc2Cl)c(Cl)c1 (configuration not stated) [Tioconazole],-1.08
18,COc1cc2c(c(OC)c1OC)-c1c(cc3c(c1OC)OCO3)CC(C)C(C)C2 (configuration not stated) [Schisandrin B (Sch B)],0.739
19,c1cnc(N2CCN(Cc3ccc4c(c3)OCO4)CC2)nc1 [Piribedil maleate],0.73
20,C[C@](N)(Cc1ccc(O)c(O)c1)C(=O)O [L-alpha-Methyl DOPA],-1.22
21,Cc1c(C(=O)NN2CCCCC2)nn(-c2ccc(Cl)cc2Cl)c1-c1ccc(Cl)cc1 [Rimonabant],-2.91
22,C[C@H]1c2cccc(O)c2C(=O)C2=C(O)[C@]3(O)C(=O)C(C(N)=O)=C(O)[C@@H](N(C)C)[C@@H]3[C@@H](O)[C@@H]21 [Doxycycline Hyclate],4.54
23,C[C@H]1c2cccc(O)c2C(=O)C2=C(O)[C@]3(O)C(=O)C(C(N)=O)=C(O)[C@@H](N(C)C)[C@@H]3[C@@H](O)[C@@H]21 [Doxycycline hydrochloride],2.82
24,C[C@H]1c2cccc(O)c2C(=O)C2=C(O)[C@]3(O)C(=O)C(C(N)=O)=C(O)[C@@H](N(C)C)[C@@H]3[C@@H](O)[C@@H]21 [Doxycycline HCl],1.84
25,COc1cc2c(cc1OC)CC(=O)N(CCCN(C)C[C@H]1Cc3cc(OC)c(OC)cc31)CC2 [Ivabradine HCl],-0.509
